Test results from the RNAGym collection of RNA variant scans (doi:10.7554/elife.90254).
Read counts are not given, so values of variants with three or more changes are uncertain.

B1: LINE1-mini (parent)
chain: GGCAGAGCUCAACACAGCGUGGCAAAGUGGCUGUGGCUAGACUGCC

Variants of: B1
Assay: self-cleavage, relative activity (ratio to wild type); higher = more cleavage; in vitro, sequencing; the parent is a self-cleaving ribozyme

Row | Variant | self-cleavage
1 | AGCAGAGCUCAACACAGCGUGGCAAAGUUGCUAUGGCUAGACUGAC [G1A G29U G33A C45A] | 0.01
2 | GGCAGAGGUCAGCACAGCGUGGCAAAGAGGCUGUGGCUAGACUGCC [C8G A12G U28A] | 0
3 | GGCAGAGCUCAAGCCAGCGUGGCAAGGUGGGGGUGGCUAGACUGCC [C13G A14C A26G C31G U32G] | 0.01
4 | GGCAGAGGGCAACACAGCGUGACAAAGUGGCUGUGGCUAGACUGCC [C8G U9G G22A] | 0.02
5 | GGCAGAGCUCAGCACACAGUGGCAAAGUGGCUGUGGCUAGGCUGCU [A12G G17C C18A A41G C46U] | 0.01
6 | GGCAGGGCUCAACACAGCGUGGCAAAGUGGUUGUGGCUAGCCUGCC [A6G C31U A41C] | 0.02
7 | GCCAGAGCUAAACACAGCGUGGCAAAGUGCCUCUGGCUAGACUGCC [G2C C10A G30C G33C] | 0.02
8 | GGCAGAGCUCAAAACAGCGUGGUAAAAUGGCUGUGGCUAGACUGCC [C13A C23U G27A] | 0.14
9 | GGCAGGUCUCAACACAGCGUGCCAAAGUGGCUGUAGCUAGACUGCC [A6G G7U G22C G35A] | 0.05
10 | GGCAGAGCUAAACAUAACGUGGCAAAGUGGCUGUGGCUAGCCUGCC [C10A C15U G17A A41C] | 0.04
11 | GGCACAGCUCAAGACAGCGUGGCAAAGUGUCUGUGGCUAGACGUCG [G5C C13G G30U U43G G44U C46G] | 0.02
12 | GGCAGAGCUCAACACAGCCUGGCCAAGUGGCUCUGGCUAGACUGCC [G19C A24C G33C] | 0.04
13 | GGCAGAGCUCAACACAGCGUGGCAAUGUGGCUGGGGCAAGAUUGCA [A26U U34G U38A C42U C46A] | 0.01
14 | GGCAAAACGCAACACCGGGUGGCAAAGUGGCUGUGGCUAGACCGCC [G5A G7A U9G A16C C18G U43C] | 0.01
15 | GGCAGAGCUCAAUAUAGCGGGGCAAAGUGGCUGUGGCUAGACUCCC [C13U C15U U20G G44C] | 0.05
16 | GGGAGAGCUCACCACAGCGUGGCAAAGUGGCUGUGGCUAGAAUCUG [C3G A12C C42A G44C C45U C46G] | 0.04
17 | GGCAGAGCUGAACACAGCGUGGCAAAUCGGCGGUGGCUAGACUGCC [C10G G27U U28C U32G] | 0
18 | AGCAGAGCUCAACACCGCGUGGUAAAGUCGCUGUGGCUAGACUGCC [G1A A16C C23U G29C] | 2.24
19 | GGCUGAGCUCCACACAGCGUGGCAAAGUGGCUGUGGCUAAACUGCC [A4U A11C G40A] | 0.02

Row | Variant | self-cleavage
20 | GGCAGAGCUCAACACGGCGAGGCAAAGUGGCUGUGGCUAGACUGCA [A16G U20A C46A] | 0.36
21 | GGCAGAGGUCCACACAGCGUGGCAAAGUGGCGGUGGCUAGACUGCC [C8G A11C U32G] | 0.01
22 | GGCAAAGCUCAACACAGCGGGGCAAAGUGGCUGUUGCUAGACUGCC [G5A U20G G35U] | 0.07
23 | GGCAGAGCUAAACACAGCGUGACAAAGUGGCUGUGGCCAGACUGCC [C10A G22A U38C] | 0.45
24 | GGCAGAGCUCAACACAGGGUGGUAAAGUGCCUGUGGCUAUACUGCC [C18G C23U G30C G40U] | 0.08
25 | GGCAGAGCUCAACACAGCGUGGCAAAGUGGCUAUGGUGAGACUGCC [G33A C37U U38G] | 0.02
26 | GGCAGUGUUCAACACACCGUGGCAAGGUGGCUGUGGCGAGACUGCC [A6U C8U G17C A26G U38G] | 0.01
27 | CGAAGAGCUAAACACAGCGUGGCAAAGUGUCUGUGGCUAGACUGCC [G1C C3A C10A G30U] | 0.02
28 | GGCAGAGCUCCACACCGCGUGGCGUAGUGGCUGUGGCCAGACUGCC [A11C A16C A24G A25U U38C] | 0.01
29 | GGAAGAGCUCAAGACAGCGUGGCAAGGUGGCUGUGGCUAGACUGCC [C3A C13G A26G] | 0.12
30 | GGCAGAGUUCAACACAGCGUGGCCAAGUGGCUGUGGGUAGACCGCC [C8U A24C C37G U43C] | 0.04
31 | GGCAGAGCUCAAGACAGCGUGGCAAAGUGGCUGUGGCUAGAUAGCC [C13G C42U U43A] | 0.18
32 | GGCAAAGCUCAACACAGCGUGCCAAAGUGGCUGCUGAUAGACUGCC [G5A G22C U34C G35U C37A] | 0.07
33 | GGCUGAGCUCAACACAGCUUGGCAAAGUGGCUGUGUCUAGACUCCC [A4U G19U G36U G44C] | 0.04
34 | GGCAGUGAACAACACAGCGUGGCAAGGUGUCUGUGGCUAGACUGCC [A6U C8A U9A A26G G30U] | 0.35
35 | GGCAGAGCUCAACACAGCGUGUAAAAAUGGGUGUGGCUAGACUGUC [G22U C23A G27A C31G C45U] | 0.16
36 | GGCAGAGCACAACACAGCGUGGCUAAGUGGCUGUGGCUAGACUGCG [U9A A24U C46G] | 0.08
37 | GACAGAGAUCAACACAGCGUGGCAAAGUUGCUGUGGCUAGACUGCC [G2A C8A G29U] | 0.78
38 | GGCAGAGCUAAAUACAGCGUGGUAAAGUGGCUGUGGCUAGACUGCC [C10A C13U C23U] | 0.02

Row | Variant | self-cleavage
39 | GACAGAGCUCAACACUGCGUGGCAAAGUGGCUGUGGAUAGACUGCC [G2A A16U C37A] | 0.09
40 | GGCAGAGCGCACCACAGCGUGGCAAAGUGGCUGUGGCUAGACUACC [U9G A12C G44A] | 0.39
41 | GGCAGAGCUCACCACAGCGUGGAAAAGUGGCUGUGGCUAGCCUGCC [A12C C23A A41C] | 0.02
42 | GGCAGAGCACAACACAGCGUGGCCAAGUGGCUGUCUCCAGACUGUC [U9A A24C G35C G36U U38C C45U] | 0.03
43 | GGCAGAGCUCAACACAGCGUGGCAAAGUCGCUGUGGCCAGACUCCC [G29C U38C G44C] | 0
44 | AGCAGAGCUCCACACAGAGUGGCAAAGUUGCUGUGGCUAGACUGCC [G1A A11C C18A G29U] | 0.06
45 | GGCAUAGCUCAACACAGCGUUGCACAGUGGCUGUUGCUAGAAUGGC [G5U G21U A25C G35U C42A C45G] | 0.04
46 | GACAGAGCUCAACACAGGGUGGCAAAGUGGCUAUGGCUAGACUGCC [G2A C18G G33A] | 0.08
47 | GUCAGAGCUCAAGACAGGGUGGCAAAGUGGCUGUGGCAAGACUGCC [G2U C13G C18G U38A] | 0.02
48 | GGCAGAGCUCACCUCAGCGUGGCAUAGUGGCUGUGGCUAGACUGCC [A12C A14U A25U] | 0
49 | GGCAGAGCUGAUUAGAGCGUGGUAAAGUGGCUGUGGCUAGACUGCC [C10G A12U C13U C15G C23U] | 0
50 | GGCAGACAUCAACACAUCGUGGCCAAGUGACUGUGGCUAGUCUGCC [G7C C8A G17U A24C G30A A41U] | 0.15
51 | GGCAGAGCUCAACACAGCGUGGCCACGUGGCUGUGGCUAGUCUGCC [A24C A26C A41U] | 0.07
52 | GGCAGAGCUCAACACAGCGUGGCGAAAUUGAUGUGGCUAGACUGCC [A24G G27A G29U C31A] | 0.46
53 | GGCAGAGCUUAACACAGAGUGUUAAAGUGGCUGUGGCUAGACUGCC [C10U C18A G22U C23U] | 0.41
54 | GGCAGAGCUCAACACAGCGUGGCAAAGUUGGUGUGGCCAGACUUCC [G29U C31G U38C G44U] | 0.02
55 | GGCAGAUCUCAGCUCAGGGUGGCAAAGUGGCUGUGGUUAGACUGCC [G7U A12G A14U C18G C37U] | 0.08
56 | GUCAGAGCUCAACACAGCGUGGCAAAGUGGCUGUGGCUGGAGUGCC [G2U A39G C42G] | 0.04
